Assay results reported in PubChem BioAssay AID624296 (National Center for Advancing Translational Sciences (NCATS), 2012).
Hit rate of the full screen: of about 350,000 compounds, about 9,900 (2.8%) were called active. Inconclusive means that the source gave no clear call. Such entries were picked first, then a sample of the others. Calls follow the shape of the dose curve; as a rule, active = well fitted activation curve with a large enough effect; inconclusive = small, poorly fitted or top-dose-only effect; inactive = no such curve, though single readings can be large or run the other way. Potencies of inconclusive entries are left out as doubtful fits.
Potency is read from the fitted curve at half-maximal effect; tags tell the direction and shape of the fitted curve.

Test: A quantitative high throughput screen for small molecules that induce DNA re-replication in MCF 10a normal breast cells. Also: nearly all actives have a fitted effect of over 50% in size.
Conditions: MCF 10A DNA re-replication, Hoechst nuclear intensity, 48 h; series mostly up to 46.1 µM
With CCN(CC)S(=O)(=O)c1ccc2[nH]cc(C(=O)NCCC3=CCCCC3)c(=O)c2c1 the Potency was inconclusive [activator, single point].
In the case of CC(C)CCN1C(=O)c2ccc(C(=O)Nc3ccc(Br)cc3C(=O)O)cc2C1=O, the Potency is reported as inconclusive [activator, partial curve, poor fit].
With Cc1cc(N2CCCC2)ccc1/C=N/n1cnnc1 the Potency was inconclusive [activator, partial curve, poor fit].
With Cn1cnc([N+](=O)[O-])c1S(=O)(=O)c1ccc(Cl)cc1 the Potency was active: 9.2 µM.
For C=CCSc1nnc(-c2ccccc2N=Cc2c(C)[nH]n(-c3ccccc3)c2=O)c(=O)[nH]1, the Potency was inconclusive [activator, single point].
In the case of COc1cc(-c2nn3c(-c4cccc(C)c4)nnc3s2)cc(OC)c1OC, the Potency is reported as inconclusive [activator, single point].
With Nc1nsc2ccccc12 the Potency was “inactive”.
For Cc1sc2ncnc(N3CCC(C(=O)N4CC(C)SC4=Nc4ccc(Cl)cc4)CC3)c2c1C (stereo not given), the Potency was “inactive”.
In the case of CCOC(=O)N1CCN(C(=O)c2oc3ccc(S(=O)(=O)N4CCCCC4)cc3c2C)CC1, the Potency is reported as inconclusive [activator, full curve, poor fit].
With COc1ccc(CC(CN)c2ccccc2)cc1 (stereo not given) the Potency was inconclusive [activator, single point].
For c1ccn2cc(C34CC5CC(CC(C5)C3)C4)nc2c1, the Potency was “inactive”.
In the case of CC(OC(=O)c1cc(Br)ccc1O)C(=O)NCc1ccc2c(c1)OCO2 (stereo not given), the Potency is reported as inconclusive [activator, single point].
In the case of Oc1ccccc1-c1cc(-c2ccccc2Cl)[nH]n1, the Potency is reported as inconclusive [activator, partial curve, poor fit].
For CN1CCCN(C(=O)c2c(F)cccc2Cl)CC1, the Potency was “inactive”.
For CCCCn1c(SCC(=O)Nc2nccs2)nc2ccccc2c1=O, the Potency was inconclusive [activator, partial curve, poor fit].
For Cc1ccc(S(=O)(=O)N(Cc2c(F)cccc2Cl)C(=O)N2CCN(C)CC2)cc1, the Potency was inconclusive [activator, single point].
For N=C1/C(=C/c2cccn2Cc2ccc(F)cc2)C(=O)N=C2SC=CN12, the Potency was active: 4.61 µM.
With O=S(=O)(/N=C(/NS(=O)(=O)c1ccccc1)c1ccccc1)c1ccccc1 the Potency was inconclusive [activator, single point].
In the case of C/C(CC(=O)NC1CCCC1)=N\NC(=O)c1ccc([N+](=O)[O-])c(Cl)c1, the Potency is reported as “inactive”.
For COc1ccccc1NC(=S)NC1CC2CCC1C2 (stereo not given), the Potency was “inactive”.
With COc1ccc(Cl)cc1N1CCN(CCNC(=O)Nc2ccccc2C)CC1 the Potency was inconclusive [activator, single point].
In the case of CCOc1ccnc(OCC)c1Br, the Potency is reported as inconclusive [activator, single point].
In the case of Cc1ccc(CN2C(=O)C(CC(C)C)Nc3ncnc(N4CCN(c5ccccn5)CC4)c32)cc1 (stereo not given), the Potency is reported as inconclusive [activator, single point].
With CCCOC(=O)c1ccc(Oc2cn[nH]c2-c2ccc(OCC(=O)NN)cc2O)cc1 the Potency was “inactive”.
With COC(=O)c1cc(C(=O)c2ccc(Cl)cc2Cl)cn1C the Potency was “inactive”.
With Cc1ccsc1C(=O)N1CCN(c2ncc(C(F)(F)F)cc2Cl)CC1 the Potency was inconclusive [activator, partial curve, poor fit].
In the case of Cc1ccccc1NC(=O)c1ccc(OCc2c(C)noc2C)cc1, the Potency is reported as inconclusive [activator, single point].
For CN(C)C(=O)CSc1nc2ccccc2n1Cc1ccccc1, the Potency was “inactive”.
In the case of Cc1onc(-c2ccc(Cl)cc2)c1-c1ccnn1S(=O)(=O)c1ccc(Cl)cc1, the Potency is reported as inconclusive [activator, single point].
With NC(=O)c1c(NC(=O)CSc2nc(N)cc(=O)[nH]2)sc2c1CCCC2 the Potency was inconclusive [activator, partial curve, poor fit].
With CC[n+]1c(/C=C/Nc2ccccc2)oc2ccc(OC)cc21 the Potency was active: 18.4 µM.
In the case of CC(C)(C)c1ccc(NC(=O)c2c(F)cccc2Cl)cc1, the Potency is reported as inconclusive [activator, partial curve, poor fit].
In the case of Cc1ccc(OCCCC(=O)Nc2ccc3c(c2)OCCO3)cc1, the Potency is reported as “inactive”.
For Cc1ccc(C(=O)O)cc1NC(=O)CSc1nnc(-c2ccccc2F)n1C1CCCCC1, the Potency was “inactive”.
For CC(/C=C/c1ccc2c(c1)OCO2)=N/NC(=O)c1cccnc1, the Potency was inconclusive [activator, single point].
In the case of C/C(=N\NC(=S)NCc1ccccc1)c1ccc(Br)cc1, the Potency is reported as inconclusive [activator, partial curve, poor fit].
For CCOc1cc(-c2nc(-c3ccccc3OC)no2)cc(OCC)c1OCC, the Potency was inconclusive [activator, partial curve].
For CNC(=O)NNC(=O)c1nc(-c2ccccc2)c(C)o1, the Potency was inconclusive [activator, single point].
With COc1ccc(C2=NOC(CNC(=O)c3ccccc3Br)C2)c(OC)c1 (stereo not given) the Potency was “inactive”.
For COc1ccc(C(CC(=O)Nc2ccc(Cl)cc2F)NC(=O)C(F)(F)F)cc1 (stereo not given), the Potency was “inactive”.
With Cc1ccc(C(c2nnnn2C2CCCCC2)N(C)C2CCCCC2)cc1 (stereo not given) the Potency was inconclusive [activator, single point].
For CCCCCCCN(c1ccccc1)[C@@H]1C[C@H]2CCCC(=O)N3CC[C@@H](C1)[C@@H]23, the Potency was inconclusive [activator, single point].
For Cc1ccc(-c2cc(-c3ccccc3Cl)c(C#N)c(N)n2)o1, the Potency was inconclusive [activator, single point].
For Cc1cccc(N2CCN(C(=O)c3cc(=O)[nH]c4ccccc34)CC2)c1C, the Potency was “inactive”.
With COc1ccc(-c2cc(C(F)(F)F)c(C#N)c(=O)[nH]2)cc1 the Potency was active: 18.4 µM.
With COc1cccc(CNC(=O)CNC(=S)N(Cc2ccccc2)Cc2ccccc2F)c1 the Potency was inconclusive [activator, full curve].
For Cc1ccc(-n2ncc3c2CC(C)(C)CC3NC(=O)c2cc[n+]([O-])cc2)cc1 (stereo not given), the Potency was “inactive”.
For CC1=NOC(=O)/C1=C/c1ccc(O)c(Br)c1, the Potency was inconclusive [activator, single point].
For CCOC(=O)Oc1ccc2c(=O)c(Oc3cc(C)cc(C)c3)coc2c1, the Potency was inconclusive [activator, partial curve, poor fit].
For COc1ccccc1NC(=O)CN(Cc1ccco1)C(=O)c1cncc(Br)c1, the Potency was “inactive”.
With COc1ccc(C(=O)C(=O)c2ccc(OCCO)cc2)cc1 the Potency was “inactive”.
For COC(=O)c1ccc(/C=C/c2c(-c3ccc(OC)cc3)oc3ccc(N4CCOCC4)cc23)cc1, the Potency was inconclusive [activator, full curve, poor fit].
In the case of CCc1ccc(NC(=O)CCc2c(C)nn(-c3ccc(N4CCOCC4)nn3)c2C)cc1, the Potency is reported as inconclusive [activator, partial curve, poor fit].
In the case of O=C(c1ccc(N2CCN(C(=O)c3cccc(F)c3)CC2)cc1)c1cccc(F)c1, the Potency is reported as inconclusive [activator, partial curve, poor fit].
For CC(=Nc1ccc(C)cc1C)c1sc2ccccc2c1O, the Potency was inconclusive [activator, partial curve, poor fit].
In the case of CC(C)NS(=O)(=O)c1ccc(CCC(=O)Nc2ccc3c(c2)OCO3)cc1, the Potency is reported as inconclusive [activator, single point].
With CCC(C)Cn1cnc2c(SCc3ccccc3F)nc(N)nc21 (stereo not given) the Potency was active: 18.4 µM.
For COc1cc(-c2[nH]nc3c2C(c2ccco2)C(C#N)=C(N)O3)cc(OC)c1OC (stereo not given), the Potency was inconclusive [activator, partial curve].
With CCOC(=O)c1ccccc1OC(=O)Oc1ccccc1C(=O)OCC the Potency was inconclusive [activator, single point].
For OCCN(Cc1ccccc1)Cc1ccc(Cl)cc1, the Potency was inconclusive [activator, partial curve, poor fit].
With O=C(NCc1cccnc1)C(=O)Nc1nc(C23CC4CC(CC(C4)C2)C3)cs1 the Potency was inconclusive [activator, single point].
For O=S1(=O)c2ccc(Br)cc2N2CCC[C@H]2CN1Cc1ccccc1, the Potency was active: 2.59 µM.
For O=C(O)c1ccc(CSc2nc(-c3ccccc3)cc(C(F)(F)F)n2)cc1, the Potency was inconclusive [activator, single point].
With CN1Cc2c(N3CCOCC3)nc3sc(C(=O)c4ccccc4)c(N)c3c2CC1(C)C the Potency was active: 20.6 µM.
For COC(=O)CSc1nnc(Cc2ccccc2)n1-c1ccc(C)cc1, the Potency was “inactive”.
In the case of C[C@]12CC[C@H](O)CC1=CCC1C2CC[C@@]2(C)C1CCC21OCCO1 (stereo not given in full), the Potency is reported as inconclusive [activator, single point].
For O=C1N/C(=C\c2ccccc2)c2ccccc21, the Potency was active: 18.4 µM.
In the case of Cc1ccc(NC(=O)c2ccc(NCCCN3CCOCC3)c([N+](=O)[O-])c2)cc1Cl, the Potency is reported as inconclusive [activator, single point].
In the case of COc1ccc(-c2nc(NC(=O)c3cc(C(C)(C)C)nn3C)sc2C)cc1, the Potency is reported as active: 14.6 µM.
In the case of Cc1ccccc1NS(=O)(=O)c1ccc(C(=O)N2CCCCCCC2)cc1, the Potency is reported as inconclusive [activator, partial curve].
